# Reference: PubChem BioAssay AID720542 (National Center for Advancing Translational Sciences (NCATS), 2013)
# In all, about 360,000 compounds went through this assay and about 740 (0.21%) were called active. Inconclusive results, whose numbers are uncertain, are shown with a selection of clear calls. The call rests on the fitted dose curve; in most records, active means well fitted inhibition curve with a large enough effect; inconclusive means small, poorly fitted or top-dose-only effect; inactive means no such curve, though single readings can be large or run the other way. Potencies of inconclusive entries are left out as doubtful fits.
# Tested on: Plasmodium falciparum AMA1 (3D7) - RON2 peptide interaction
# Assay: qHTS for Inhibitors of AMA1-RON; Towards Development of Antimalarial Drug Lead: Primary Screen; further: nearly all actives have a fitted effect of over 45% in size;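 on activity change, negative = inhibition: 0% = vehicle wells and -100% = peptide control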
# Conditions: AlphaScreen AMA1-biotinylated RON2 peptide binding; activity change, negative = inhibition: at 58.2 µM (top of the series) unless noted
# Procedure, shortened: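 AMA1 (3D7) with his tag at 25 nM final met compounds first, then biotinylated RON2 peptide at 25 nM; detection used donor plus acceptor beads, 10 µg/mL apiece, read by AlphaScreen after 30 min at room temperature.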
# Potency means the concentration at half of the fitted maximal effect; tags describe the fitted curve by direction and shape.
SMILES,Potency,"activity change, negative = inhibition"
COc1ccc2c(c1)CCCC21NC(=O)N(CC(=O)c2cc(F)ccc2F)C1=O (stereo not given),"inconclusive [inhibitor, single point]",–
COc1cccc(-c2nnc(SCC(=O)Nc3ccc(OC)c(OC)c3)n2N)c1,"inconclusive [inhibitor, full curve, poor fit]",–
O=C(Nc1ccc(F)cc1)c1cncs1,–,inactive: -6.36%
Cc1cc(NC(=O)c2ccc3c(c2)OCO3)ccc1NC(=O)c1ccco1,"inconclusive [inhibitor, single point]",–
O=C(CCc1nc(-c2ccccc2F)no1)Nc1ccc(Oc2ccccc2)cc1,–,inactive: 14%
CN(C)c1ccc(Sc2ccc3nc(N)nc(N)c3c2)cc1,active: 10 µM,–
COCC(C)n1c(SCC(=O)NC2CCCCC2)nc2ccccc2c1=O (stereo not given),–,inactive: 6.76%
COc1cccc(Oc2ccc(S(=O)(=O)N3CCCC3)cc2[N+](=O)[O-])c1,–,inactive: -14.7%
CCN(CC)c1c([N+](=O)[O-])c(=O)n(CC)c2ccccc12,–,inactive: -11.3%
CN(C)/C=N/c1sc2c(c1C#N)CCCC2,"inconclusive [inhibitor, partial curve]",–
CCCCC12CN3CCN(CC(C3)/C1=N\NC(=O)Nc1ccccc1)C2,"inconclusive [inhibitor, partial curve]",–
Cc1nc2ccccc2nc(C)c1=NOCc1ccccc1Cl,–,inactive: -0.294%
COc1ccc([N+](=O)[O-])cc1CN1CCN(c2ncc(Cc3ccccc3)cn2)CC1,"inconclusive [inhibitor, single point]",–
CC(C)Cn1c(SC(C)C(=O)Nc2ccc(N3CCOCC3)cc2)nc2ccccc21 (stereo not given),"inconclusive [inhibitor, single point]",–
Cc1cc(Cl)c(OCCOCCN2CCCC(C)C2)c(Br)c1 (stereo not given),"inconclusive [inhibitor, single point]",–
CC(C)[C@H](NS(=O)(=O)c1ccc2c(c1)OCCO2)C(=O)OCC(=O)Nc1ccccc1,–,inactive: -1.45%
O=C(Nc1ccc(N2CCCC2)cc1)c1ccccc1F,"inconclusive [inhibitor, single point]",–
Cc1cc(Br)ccc1OCCn1ccnc1,"inconclusive [inhibitor, partial curve]",–
COc1ccccc1NS(=O)(=O)c1ccc(NN=C2CCCCC2)c([N+](=O)[O-])c1,"inconclusive [inhibitor, partial curve]",–
COc1cccc(NC(=O)CN2C(=O)NC(Cc3c[nH]c4ccccc34)C2=O)c1 (stereo not given),–,inactive: 5.72%
Nc1cccc(-c2cn3cccnc3n2)c1,–,inactive: 18%
O=C(Nc1ccc(S(=O)(=O)N2CCOCC2)cc1)c1ccccc1F,–,inactive: -1.22%
CNC(=S)NC1CC2CCC(C1)N2Cc1ccccc1 (stereo not given),–,inactive: -1.01%
Cc1ccc(Nc2c([N+](=O)[O-])ccc3c2=NC2(CCCCC2)N=3)cc1,"inconclusive [inhibitor, full curve]",–
Cc1ccc2c(c1)C(C)CC(C)(C)N2C(=O)CN1CCN(C)CC1 (stereo not given),"inconclusive [inhibitor, single point]",–

SMILES,Potency,"activity change, negative = inhibition"
c1ccc2c(c1)ccc1[nH]c3c(c12)CCCC3,"inconclusive [inhibitor, partial curve]",–
Cc1ccc(C)n1Cc1ccc(C(=O)O)cc1,"inconclusive [inhibitor, partial curve]",–
CC1CCc2nc(NC(=O)CN3CCOCC3)sc2C1 (stereo not given),–,inactive: 9.09%
COc1ccc(/C=N/n2c(N)nc(-c3ccccc3)c2-c2ccccc2)cc1,–,inactive: -5.69%
CCc1ccccc1N/N=C(/C)c1c(O)cc(C)oc1=O,–,inactive: -2.87%
CC1(C)CC(=O)C(CC2=C(O)CC(C)(C)CC2=O)=C(O)C1,–,inactive: 5.67%
CC(=O)Nc1ccc(S(=O)(=O)NCC(=O)Nc2ccc3c(c2)OCO3)cc1,–,inactive: -1.28%
Cn1c(=O)c2sccc2n2c(CCCC(=O)NCc3ccco3)nnc12,"inconclusive [inhibitor, single point]",–
CCOC(=O)CCCCCN(Cc1ccccc1)S(=O)(=O)c1ccc([N+](=O)[O-])cc1,"inconclusive [inhibitor, partial curve]",–
N#CCC(=O)Nc1nc(-c2ccc3c(c2)OCCO3)cs1,–,inactive: 17.6%
Cc1ccc2cc(F)c(F)c(F)c2n1,–,inactive: 7.11%
CN(C)c1cccc(C(=O)NCCCn2ccc3ccccc32)c1,"inconclusive [inhibitor, single point]",–
O=C(O)CNC(=O)CC1S/C(=N/N=C2\CSC(=O)N2)NC1=O (stereo not given),active: 39.8 µM,–
Cc1cccc(C)c1NC(=O)CN(c1ccccn1)S(=O)(=O)c1ccc(F)cc1,"inconclusive [inhibitor, full curve]",–
FC(F)(F)c1ccc2c(c1)NCC1CCCN21 (stereo not given),"inconclusive [inhibitor, partial curve]",–
O=C1c2ccccc2C(=O)c2c1cccc2N1CCOCC1,"inconclusive [inhibitor, partial curve]",–
O=C(COc1ccccc1)Nc1nnc(-c2ccc3c(c2)CCCC3)o1,–,inactive: 121%
CCS(=O)(=O)N1CCN(C(C)CCc2ccccc2)CC1 (stereo not given),"inconclusive [inhibitor, partial curve]",–
CC(=O)NC1C(=O)N(CCN2CCOCC2)c2ccc(F)cc21 (stereo not given),"inconclusive [inhibitor, single point]",–
Cc1cc(C(=O)OCC(=O)Nc2ccccc2C(F)(F)F)on1,"inconclusive [inhibitor, partial curve]",–
S=C(c1ccc(-c2ccc(Br)cc2)o1)N1CCCCC1,"inconclusive [inhibitor, single point]",–
CCOC(=O)c1c(C)[nH]c(C(=O)COC(=O)CSC)c1C,–,inactive: -0.675%
CCNc1nc2nc3ccc(C)cn3c(=O)c2cc1C(=O)NCC1CCCO1 (stereo not given),"inconclusive [inhibitor, partial curve]",–
COc1ccc(CN2CCN(C(=O)c3ccccc3F)CC2)c(OC)c1OC,"inconclusive [inhibitor, single point]",–
CC(=O)OC(c1nc2ccccc2c(=O)n1C1CC2(OC1=O)c1ccccc1N1C(=O)C(C)(C)N(O)C12)C(C)C (stereo not given),–,inactive: -0.698%
